# In the supplement of paper PMC12009370:
# The list shows a part of the results. Many values rest on one well or one pass, so single values are uncertain.
# How the values were obtained:
# IMR-32 [1] = test: drug sensitivity score (DSS), single drug with vehicle (DSS (score)); higher = more cytotoxic; extreme values may be limits of the assay; details: 72 h; co-treatment: vehicle (DMSO)
# SK-N-AS [2] = test: as above; details: 72 h; co-treatment: vehicle (DMSO)
# SK-N-AS [3] = test: drug sensitivity score (DSS) in combination with SL-176 (DSS (score)); higher = more cytotoxic; extreme values may be limits of the assay; details: 72 h; co-treatment: SL-176 11.2 uM (IC25 in IMR-32)
# IMR-32 [4] = test: as above; details: 72 h; co-treatment: SL-176 11.2 uM (IC25 in IMR-32)
# SK-N-AS [5] = test: drug sensitivity score (DSS) in combination with GSK2830371 (DSS (score)); neuroblastoma lines; SL-176 and GSK2830371 are WIP1 inhibitors; higher = more cytotoxic; extreme values may be limits of the assay; details: 72 h; co-treatment: GSK2830371 at IC25 in IMR-32
# IMR-32 [6] = test: as above; details: 72 h; co-treatment: GSK2830371 at IC25 in IMR-32
# 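Wherever drug sensitivity score (DSS) in combination with GSK2830371 is given: neuroblastoma cells in 384-well plates, each compound at five concentrations, luminescence read-out, DSS derived from fitted concentration-response curve combining IC50 with minimum and maximum inhibition.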
# 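Wherever drug sensitivity score (DSS) in combination with SL-176 is given: cells in 384-well plates, luminescence read-out, each screening drug at five concentrations, DSS derived from the fitted concentration-response curve combining IC50 with minimum and maximum inhibition.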
# 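Wherever drug sensitivity score (DSS), single drug with vehicle is given: 384-well screen with five concentrations per compound and a luminescence read-out, DSS computed from the fitted dose-response curve combining IC50 with minimum and maximum inhibition.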
SMILES,drug sensitivity score (IMR-32 [1]),drug sensitivity score (SK-N-AS [2]),drug sensitivity score (SK-N-AS [3]),drug sensitivity score (IMR-32 [4]),drug sensitivity score (SK-N-AS [5]),drug sensitivity score (IMR-32 [6])
CCS(=O)(=O)c1cccc(-c2cc(C(=O)NC3CCN(C)CC3)c(C)c3[nH]c4ncc(C)cc4c23)c1,17.4,9.1,7.5,16.9,8.9,22.5
CCc1c2c(nc3ccc(O)cc13)-c1cc3c(c(=O)n1C2)COC(=O)[C@]3(O)CC,47.8,24.6,25.4,47.9,27.7,47.9
CNC(=O)CN1CCC(Oc2cc3c(Nc4cccc(Cl)c4F)ncnc3cc2OC)CC1 [Sapitinib],0,0,0,0,0,0
CCS(=O)(=O)N1CC(CC#N)(n2cc(-c3ncnc4[nH]ccc34)cn2)C1 [Baricitinib],0,0,0,0,0,0
Nc1nc(Cl)nc2c1ncn2[C@@H]1O[C@H](CO)[C@@H](O)[C@@H]1F [Clofarabine],33.4,14.6,13.1,32.5,14,33.8
COc1cc2c(NC3CCN(C(C)C)CC3)nc(C3CCCCC3)nc2cc1OCCCN1CCCC1,4.7,5.4,6.9,6,6.5,7.5
CO[C@H]1C[C@@H]2CC[C@@H](C)[C@@](O)(O2)C(=O)C(=O)N2CCCC[C@H]2C(=O)O[C@H]([C@H](C)C[C@@H]2CC[C@@H](OCCO)[C@H](OC)C2)CC(=O)[C@H](C)/C=C(\C)[C@@H](O)[C@@H](OC)C(=O)[C@H](C)C[C@H](C)/C=C/C=C/C=C/1C [Everolimus],9.1,8.8,6.3,4.4,8.2,8
Cc1cc(Nc2cc(N3CCN(C)CC3)nc(Sc3ccc(NC(=O)C4CC4)cc3)n2)n[nH]1 [Tozasertib],31.7,12.8,11.1,31,13.2,31.1
CC(=O)Nc1cccc(-n2c(=O)n(C3CC3)c(=O)c3c(Nc4ccc(I)cc4F)n(C)c(=O)c(C)c32)c1 [Trametinib],0,22.6,22.4,0,22.9,0.2
COc1c(OCCCN2CCOCC2)ccc2c1N=C(NC(=O)c1cnc(N)nc1)N1CCN=C21 [Copanlisib],6.2,8.2,8.4,5.4,7.6,9
CN1CCC(CNc2ccc3ncc(-c4cccc(OC(F)(F)F)c4)n3n2)CC1,9.1,7.6,6.7,8.7,6.9,10.5
Cc1c(F)cc(C(=O)NC2CC2)cc1-c1ccc(C(=O)NCC(C)(C)C)cn1 [Losmapimod],3.3,0,1.1,6.4,0,6.6
Cn1cc(C2=Nc3cc(NC(=O)C(N)C4CCCCC4)cc4c3C2=CNNC4=O)cn1 (stereo unspecified),24.7,16.6,15.6,20.2,16.8,28
O=C(NCc1ccncc1)C12CC3CC(C1)CC(c1ccc(Cl)cc1)(C3)C2,9.2,4.4,6,9.4,5.5,9.8
CC(C)C[C@H](NC(=O)CNC(=O)c1cc(Cl)ccc1Cl)B(O)O [Ixazomib],18.1,12.2,12.9,14.8,12.7,17.9
COc1ccc(-c2ccc3c(N4CCOC[C@@H]4C)nc(N4CCOC[C@@H]4C)nc3n2)cc1CO,19.6,22.1,20.9,18.4,22.5,24.5
CC(C)NC[C@@H](C(=O)N1CCN(c2ncnc3c2[C@H](C)C[C@H]3O)CC1)c1ccc(Cl)cc1 [Ipatasertib],0.3,2.7,2,1.9,2.5,3.7
CCN1CCN(Cc2ccc(Nc3ncc(F)c(-c4cc(F)c5nc(C)n(C(C)C)c5c4)n3)nc2)CC1 [Abemaciclib],9.6,7,7.9,10.7,7.9,8.6
O=C(Nc1ccc(OC(F)(F)Cl)cc1)c1cnc(N2CC[C@@H](O)C2)c(-c2cc[nH]n2)c1 [Asciminib],0,0,0,0,0,0.8
C[C@H](Nc1ncnc2nc[nH]c12)c1cc2cccc(Cl)c2c(=O)n1-c1ccccc1 [Duvelisib],0,0,0,0,0,0
CC1(C)NC(=O)N(c2ccc([N+](=O)[O-])c(C(F)(F)F)c2)C1=O [Nilutamide],0.3,0,0.6,0,0.2,0
Cc1cc2c(F)c(Oc3ncnn4cc(OC[C@@H](C)O)c(C)c34)ccc2[nH]1 [Brivanib],1.5,0,0,1.2,0,2
COC(=O)c1ccc([C@H]2c3[nH]c4ccccc4c3C[C@H](C(=O)OC)N2C(=O)CCl)cc1,0.5,0,0,0,0,0

SMILES,drug sensitivity score (IMR-32 [1]),drug sensitivity score (SK-N-AS [2]),drug sensitivity score (SK-N-AS [3]),drug sensitivity score (IMR-32 [4]),drug sensitivity score (SK-N-AS [5]),drug sensitivity score (IMR-32 [6])
C[C@@H](Nc1cc(F)cc(F)c1)c1cc(C(=O)N(C)C)cc2c(=O)cc(N3CCOCC3)oc12,1.1,0,0.2,0,0,0.8
CS(=O)(=O)CCNCc1ccc(-c2ccc3ncnc(Nc4ccc(OCc5cccc(F)c5)c(Cl)c4)c3c2)o1 [Lapatinib],0,0,0,0.6,0,0
CC#CC(=O)N1CCC[C@H]1c1nc(-c2ccc(C(=O)Nc3ccccn3)cc2)c2c(N)nccn12 [Acalabrutinib],1.2,0,0,7.5,0,0
CC(C)(C)c1cc(NC(=O)Nc2ccc(Oc3ccnc4[nH]c(=O)cnc34)cc2F)n(-c2ccccc2)n1,11.4,6.9,6.8,10.1,7.2,11.2
CO[C@@H](C)Cn1c(=O)n(C)c2cnc3ccc(-c4cncc(C(C)(C)O)c4)cc3c21,11.6,12.3,11.6,9.6,12.8,13.6
CCNC(=O)CCC/C=C\C[C@@H]1[C@@H](/C=C/[C@@H](O)CCc2ccccc2)[C@H](O)C[C@@H]1O [Bimatoprost],0.1,0,0,1.1,0,0
COc1cccc2c1C(=O)c1c(O)c3c(c(O)c1C2=O)C[C@@](O)(C(C)=O)C[C@@H]3O[C@H]1C[C@H](N)[C@H](O)[C@H](C)O1 [Daunorubicin],21.2,9.1,8.1,21.9,9.3,24
CCNC(=O)c1noc(-c2cc(C(C)C)c(O)cc2O)c1-c1ccc(CN2CCOCC2)cc1 [Luminespib],15.2,22.3,26.3,16.2,23,22.5
COc1cc2nccc(Oc3ccc(NC(=O)C4(C(=O)Nc5ccc(F)cc5)CC4)cc3)c2cc1OC [Cabozantinib],0,0,0,0.2,0,0
CC(C)C(=O)Nc1ccc([N+](=O)[O-])c(C(F)(F)F)c1 [Flutamide],0,0,0,1.9,0,2.1
O[C@H](C[C@H]1c2c(F)cccc2-c2cncn21)[C@H]1CC[C@H](O)CC1,0,1.1,0.2,0.1,1.6,0.1
C=CC(=O)Nc1cc2c(Nc3ccc(F)c(Cl)c3)ncnc2cc1OCCCN1CCOCC1 [Canertinib],9.4,9.2,9,8.7,9.6,9.7
C[C@@H]1C=C2C(=O)O[C@@H]3CC[C@H](C1)[C@]23O [Galiellalactone],9.6,7.5,8,6.5,8,8.4
CC(C)c1c(C(=O)Nc2ccccc2)c(-c2ccccc2)c(-c2ccc(F)cc2)n1CC[C@@H](O)C[C@@H](O)CC(=O)O [Atorvastatin],7.3,0,0.2,5.1,0,6.8
CC(C)Nc1cc(-c2c[nH]c(C(=O)N[C@H](CO)c3cccc(Cl)c3)c2)c(Cl)cn1 [Ulixertinib],2.8,16.3,16.5,4.2,16.4,6.1
Cn1cnc2c(F)c(Nc3ccc(Br)cc3Cl)c(C(=O)NOCCO)cc21 [Selumetinib],4,21.8,21.1,0.8,20.9,1.3
C/C=C1\NC(=O)[C@H]2CSSCC/C=C/[C@H](CC(=O)N[C@H](C(C)C)C(=O)N2)OC(=O)[C@H](C(C)C)NC1=O [Romidepsin],33.4,27.1,25.7,33.8,28.3,29.5
NC(=O)c1cccc2cn(-c3ccc([C@@H]4CCCNC4)cc3)nc12 [Niraparib],15.5,0.2,1.4,18.8,0.4,22.1
CNC(=O)c1ccc(C)c(-n2c(C)cc(OCc3ccc(F)cc3F)c(Br)c2=O)c1,0,0,0,0,0,4.3
CC[C@H](CO)Nc1nc(NCc2ccccc2)c2ncn(C(C)C)c2n1 [Seliciclib],2.1,1.8,2.4,6.5,0.6,4.4
CNC(=O)c1ccc2cc([C@@]3(O)CCn4cncc43)ccc2c1 [Orteronel],0,0,0,0,0,0
COC(=O)C[C@](O)(CCCC(C)(C)O)C(=O)O[C@@H]1C(OC)=C[C@]23CCCN2CCc2cc4c(cc2[C@H]13)OCO4 [Omacetaxine],29.5,28.7,26.1,33.2,27.9,30.7
C=CC(=O)Nc1cccc(Oc2nc(Nc3ccc(N4CCN(C)CC4)cc3)nc3ccsc23)c1 [Olmutinib],0,0.1,0.4,0,0,0.5
